Data as given in PubChem BioAssay AID1347073 (National Center for Advancing Translational Sciences (NCATS), 2019).
About 200 (0.44%) of roughly 45,000 compounds were called active. Roughly 7% stayed inconclusive and do not appear here. Calls come from the whole dose curve; as a rule, active = well fitted activation curve with a large enough effect; inconclusive = small, poorly fitted or top-dose-only effect; inactive = no such curve, though single readings can be large or run the other way. Some of the results follow.

test: qHTS of TDP-43 Inhibitors: NCGC Sytravon Library Screen; conditions: yeast TDP-43 toxicity rescue, BacTiter-Glo growth, 24 h; series mostly up to 46.1 µM; growth rescue (activation): at the top concentration; note: nearly all actives have a fitted effect of over 55% in size; for growth rescue (activation): 0% is about no effect
Procedure, shortened: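 TDP-43-expressing yeast, pregrown in raffinose, seeded at OD600 0.02 in galactose medium with compound for 24 hr at 30 deg C. Growth read by BacTiter-Glo luminescence, so rescue of toxicity appears as activation.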
Potency is the fitted concentration of half-maximal effect.

SMILES	growth rescue (activation)	Potency
COc1ccc(CC(=O)NNC(=O)c2ccco2)cc1OC	inactive: -19.7%	–
CCn1c(/C=N/Nc2ccc(C(=O)O)cc2)nc2ccccc21	inactive: -6.51%	–
O=C(/C=C/c1ccc2c(c1)OCO2)NCc1ccc(F)cc1	inactive: -6.79%	–
COc1ccc(OCC(=O)O/N=C(\N)c2ccc(OC)c(OC)c2)cc1	inactive: 29.6%	–
COc1ccccc1CN(Cc1cccnc1)S(=O)(=O)c1ccc(-n2cnnn2)c(OC)c1	inactive: 18.9%	–
COc1ccccc1-c1nc(SCC(=O)Nc2ccccc2)n[nH]1	inactive: 0.83%	–
COc1ccc(NC(=O)C/C(C)=N/NC(=O)c2ccccn2)c(OC)c1	inactive: 12.4%	–
CN1c2ccsc2/C(=N/Nc2ccccc2)CS1(=O)=O	inactive: -12%	–
CC(C)(C)c1ccc(-c2nc(NC(=O)CSc3ncnc4sc5c(c34)CCCC5)ns2)cc1	inactive: -4.03%	–
CC1=Nc2ccccc2N=C(NC(=O)CSC(=S)N2CCCCC2)C1c1ccccc1 (stereo not drawn)	inactive: -6.91%	–
CN(C)N1C(N)=C(C#N)C(c2ccc(F)cc2)C2=C1CCCC2=O (stereo not drawn)	inactive: 2.19%	–
CCNC(=O)C1(C)CCCN(C(=O)CCc2cccs2)C1 (stereo not drawn)	inactive: 5.25%	–
Cc1cccc(C)c1OCc1cc(C(=O)N2CCC[C@H]2C(N)=O)no1	inactive: 13.6%	–
O=C(CSC1=NC(=O)C(Cc2ccccc2)C(=O)N1)Nc1ncc(Br)cc1Br (stereo not drawn)	inactive: 6.45%	–
Cc1ccc(C2C(C#N)=C(N)N(c3cccnc3)C3=C2C(=O)CCC3)c(C)c1 (stereo not drawn)	inactive: -8.92%	–
CCc1ccccc1NC(=O)CNCC(=O)Nc1ccccc1CC	inactive: -17.6%	–
Cc1ccc(NC(=O)COC(=O)Cc2csc(-c3cccc(F)c3)n2)cc1C	inactive: -29.4%	–
Cc1cccc(C)c1NC(=O)c1ccc2sc([C@H]3C[C@H](O)[C@@H](CO)O3)nc2c1	inactive: 5.04%	–
COCCNC(=O)C(c1ccncc1)N(Cc1ccccc1)C(=O)Cn1nnc2ccccc21 (stereo not drawn)	inactive: -0.584%	–
Cc1ccc2c(c1)N(CCCC(=O)Nc1cccc(C(F)(F)F)c1)C(=O)CO2	–	inactive
COC(=O)c1ccc(N2CCN(C)CC2)c(NC(=O)COc2cccc(C)c2)c1	inactive: 11.4%	–
O=C(N/N=C\c1ccc(-c2cccc(Cl)c2)o1)C(=O)NC1CCCC1	inactive: -0.464%	–

SMILES	growth rescue (activation)	Potency
CCN(Cc1cccs1)C(=O)CN1CCN(S(=O)(=O)c2ccc3c(c2)OCCCO3)CC1	inactive: 26.3%	–
CCC1(CC)Cc2ccccc2-c2nc(CN(C)C)[nH]c(=O)c21	inactive: -9.66%	–
O=C(O)c1ccccc1CSc1nnc2c(n1)[nH]c1ccccc12	inactive: 5.14%	–
O=C(CCCC(=O)N(CC(=O)NC1CCCC1)c1cccc(F)c1)Nc1ccccn1	inactive: 8.89%	–
COCCNC(=O)C1Cc2c(-c3cccc(NC(C)=O)c3)ccnc2O1 (stereo not drawn)	inactive: 17.7%	–
Cc1cc(C)n2nc(SCC(=O)N3CCCC(C)C3)nc2n1 (stereo not drawn)	inactive: 10.9%	–
CN(C(=O)COC(=O)C12CC3CC(CC(Cl)(C3)C1)C2)c1ccccc1	inactive: -1.54%	–
Cn1nccc1-c1coc2c(C(=O)NCC3CCOCC3)cccc12	inactive: 7.38%	–
O=S(=O)(c1ccccc1)N(CC1CO1)c1cccc2ccccc12 (stereo not drawn)	inactive: 9.35%	–
CCN1CCN(c2ncc(C(=O)Nc3cc(Cl)c(OC)cc3OC)c3ccccc23)CC1	inactive: -26.6%	–
CCOC(=O)C1CCCN(C(=O)c2cc(Nc3ccc(OC)c(OC)c3)nc3ccccc23)C1 (stereo not drawn)	inactive: 15.5%	–
CC(C)(C)NCc1cc(Br)ccc1OC1CCCC1	inactive: -7.78%	–
COc1ccc(NC(=O)c2cc3c(=O)n4ccccc4nc3n2C)cc1OC	inactive: -3.64%	–
O=C(NCc1cccc(Cl)c1)c1ccc(-n2ccnc2)c2ccoc12	inactive: -9.77%	–
Cn1c(N2CCOCC2)cc(=O)n(C)c1=O	inactive: 16.6%	–
CN(C)c1ccc(NC2=C(Cl)C(=O)c3ccccc3C2=O)cc1	inactive: 3.39%	–
Cc1cc[n+](C2=C([O-])c3ccccc3C(=O)/C2=N\S(=O)(=O)c2cccs2)cc1C	inactive: -13.7%	–
COc1ccc(-c2coc3c(C(=O)NC4CCCCC4)cccc23)c(C)c1	inactive: 21.5%	–
COc1cc(SC)ccc1C(=O)Nc1cc(C)c(OCC(=O)N2CCOCC2)c(C)c1	inactive: -0.421%	–
CCOc1cc(/C=C2\C(=O)N(Cc3ccco3)C(C)=C2C(=O)OC)ccc1O	inactive: -2.09%	–
CCN(CC(=O)NC(C)(C)C)Cc1nc2c(Br)cc(Br)cc2c(=O)[nH]1	inactive: 6.43%	–
C=CCN(Cc1cn(C)nc1-c1cccc(Cl)c1)C1CCS(=O)(=O)C1 (stereo not drawn)	inactive: 3.02%	–

SMILES	growth rescue (activation)	Potency
COc1cc(/C=N/NC(=O)c2cccc(NC(=O)c3ccccc3C)c2)ccc1O	inactive: 14.2%	–
Cc1ccc2c(c1)N(CCC(=O)NCCCN1CCCC1)C(=O)CO2	inactive: 8.41%	–
C/C(=C\C(=S)Nc1ccccc1)Nc1ccc2ccccc2c1	–	active: 14.1 µM
O=C(Cc1ccccc1F)NNC(=O)c1cccs1	inactive: 2.62%	–
N=C1/C(=C/c2coc3ccccc3c2=O)C(=O)N=C2SC(c3ccco3)=NN12	inactive: -93.7%	–
COc1cc(/C=C2/C(=O)NN(c3cccc(C)c3)C2=O)ccc1OC(=O)c1ccco1	inactive: -5.2%	–
C=CCN(CC=C)CCOc1ccc(OC(C)C)cc1	inactive: 0.848%	–
CCOC(=O)CN1C(=O)S/C(=C/c2ccc(OCc3ccc(C(=O)O)cc3)cc2)C1=O	inactive: 17.3%	–
COC(=O)C1=C(C(=O)c2ccccc2)C(c2ccccc2)n2nnnc2N1 (stereo not drawn)	inactive: -1.96%	–
CCOc1ccc(C(=O)N2CCCC(c3nc(-c4cccs4)no3)C2)cc1 (stereo not drawn)	inactive: 7.24%	–
N#Cc1c(-c2ccccc2)nc(SCc2ccc(Cl)cc2)[nH]c1=O	inactive: 3.38%	–
CCCc1ccc(-c2cc(C(=O)Nc3ccc([N+](=O)[O-])cn3)c3ccccc3n2)cc1	inactive: 6.89%	–
O=C(C1CCCO1)N1CCN(C(=S)Nc2ccccc2)CC1 (stereo not drawn)	inactive: -22.6%	–
COc1cc(CC(=O)Nc2ccc3c(c2)CCC3)cc(OC)c1OC	inactive: 8.52%	–
O=C(CNC(=O)c1cccs1)c1ccc(Br)cc1	inactive: 19.3%	–
O=C(NNc1c(F)c(F)cc(F)c1F)c1ccc(Cl)nc1	inactive: 14.1%	–
CC1(C)OC(=O)N(CCC(=O)Nc2cccc(F)c2)C1(C)O (stereo not drawn)	inactive: -6.57%	–
CC(CNS(=O)(=O)c1ccccc1)Sc1ncccn1 (stereo not drawn)	inactive: 11.2%	–
COc1ccc(OC)c(NC(=O)CN(Cc2ccc(F)cc2)C2CCCCC2)c1	inactive: 1.17%	–
O=C(CSCc1c(F)cccc1Cl)NCc1ccncc1	inactive: 8.78%	–
CC(C)NC(=O)NC(=O)CSc1ccc(S(=O)(=O)N2CCCC2)cn1	inactive: 2.25%	–
CCOc1ccc(NC(=O)NC(C)CC)cc1 (stereo not drawn)	inactive: -14.3%	–

SMILES	growth rescue (activation)	Potency
Cc1ccc(C(=O)NC(=S)NCC2CCCO2)cc1[N+](=O)[O-] (stereo not drawn)	inactive: 11.9%	–
Cc1ncc(CO)c(/C=N/NC(=O)c2cc3c(s2)CCCC3)c1O	inactive: 19.5%	–
COc1ccc(OCC(=O)OCC(=O)NC2CCCC2)cc1	inactive: 3.82%	–
O=C(COc1ccc(-n2cnnn2)cc1)Nc1cc(Cl)cc(Cl)c1	inactive: -4.78%	–
Cn1c(N)c(C(=O)CSc2nc3ccccc3c(=O)n2Cc2ccccc2)c(=O)n(C)c1=O	inactive: 18.3%	–
O=C(Nc1ccc(O)cc1)c1ccc2c(c1)C(=O)N(Cc1ccco1)C2=O	inactive: 0.25%	–
CC(C)(C)NC(=O)Cc1ccc(Cl)c(Cl)c1	inactive: 6.54%	–
Cc1nc2nc3c(c(=O)n2[nH]1)CCCC3	inactive: 7.56%	–
CCCCN(C)c1c(C)nc2ccc(C(=O)NCCOc3ccc(OC)cc3)cn12	inactive: 9.67%	–
CCC(=O)N1CCc2cc(S(=O)(=O)N3CCc4ccccc43)ccc21	inactive: 21.6%	–
Clc1ccccc1Nc1nnc(-c2ccncc2)s1	inactive: -11.4%	–
Cc1cc([N+](=O)[O-])nn1CC(=O)NC1CCCCC1	inactive: 1.83%	–
Cc1ccc(S(=O)(=O)N2CCOCC2)cc1C(=O)NCCN1C(=O)S/C(=C\c2ccccc2Cl)C1=O	inactive: 2.24%	–
CCOc1ccc(N(CC(=O)OC)S(=O)(=O)c2ccc(OC)c(OC)c2)cc1	inactive: -1.51%	–
Cc1ccc(C)c(-n2c(=O)c(C#N)cc3c(=O)n4ccccc4nc32)c1	inactive: -9.43%	–
CCCc1nc(NCc2ccccc2)c(C#N)c2c1CCCC2	inactive: 5.14%	–
O=C(c1ccccc1)N1CCCCCC1	inactive: 15.4%	–
O=C(NCC(c1ccco1)N1CCCC1)c1ccc(-n2cccn2)cc1 (stereo not drawn)	inactive: -11.4%	–
COc1cccc(/C=N/NC(=O)c2ccc(N3CCCC3=O)cc2)c1	inactive: 8.86%	–
CCCS(=O)(=O)C(=C1NCCO1)S(=O)(=O)CCC	inactive: -23.6%	–
CC(NS(=O)(=O)c1ccc2c(c1)OCCCO2)C(=O)O (stereo not drawn)	inactive: -4.64%	–
O=c1cc(CN2CCN(S(=O)(=O)/C=C/c3ccccc3)CC2)c2ccc(O)cc2o1	inactive: 15.8%	–

SMILES	growth rescue (activation)	Potency
Cc1ccc(C(=O)NCCNc2nc3cc(C)c(C)cc3cc2C)cc1	inactive: 12%	–
CCCCOc1ccc(N2C(=O)CC(NCc3ccncc3)C2=O)cc1 (stereo not drawn)	inactive: -0.278%	–
Cc1nn(CC(=O)NCCN2CCOCC2)c(C)c1[N+](=O)[O-]	inactive: 4.18%	–
O=C(NCC1CCCN(C(=O)c2cscn2)C1)c1ccccc1Cl (stereo not drawn)	inactive: -0.724%	–
CC(=O)Nc1ccc(SCC(=O)Nc2ccccc2N2CCOCC2)cc1	inactive: -0.45%	–
O=C(NCCCc1ccccc1)[C@@H]1Cc2ccccc2CN1	inactive: -7.85%	–
COc1ccc(S(=O)(=O)NC(CCSC)C(=O)NC2CCCCC2)cc1 (stereo not drawn)	inactive: 5.35%	–
O=C(CNS(=O)(=O)c1ccc(Br)s1)NCCc1ccc(Cl)cc1	inactive: -5.74%	–
CCCC(=O)Nc1c(-c2ccccc2)c(=O)c(C)nn1-c1ccccc1	inactive: 7.59%	–
COc1cc(OC)c(NC(=O)Cn2cnc3sc(C)c(S(=O)(=O)N4CCOCC4)c3c2=O)cc1Cl	inactive: 10.7%	–
COc1cc(/C=C/C(=O)OCC(=O)NCCC2=CCCCC2)cc(OC)c1OC	inactive: 27.4%	–
COC(=O)c1ccccc1NC(=O)Nc1ccc(C)cn1	inactive: 5.93%	–
CC(=O)Nc1ccc(S(=O)(=O)Nc2cc3c(cc2C(C)=O)OCO3)cc1	inactive: 6.99%	–
COC(=O)C(=O)/C=C(\O)c1c(C)cc(C)cc1C	inactive: -9.21%	–
CCCn1c(SCC(=O)Nc2ccc(C)c(S(=O)(=O)N3CCOCC3)c2)n[nH]c1=O	inactive: -17.8%	–
O=C(Nc1ccc2[nH]c(=O)[nH]c2c1)C(F)(F)F	inactive: 2%	–
Cc1ccc(C(C(=O)NC2CCCCC2)N(Cc2cccnc2)C(=O)c2csnn2)cc1 (stereo not drawn)	inactive: -6.63%	–
COc1cccc(CC2(CO)CCCN(Cc3cc4ccccc4[nH]3)C2)c1 (stereo not drawn)	inactive: 10.4%	–
COc1ccccc1OCC(=O)n1cc(C(=O)c2cc(Cl)cc(Cl)c2O)cn1	inactive: -0.342%	–
Cc1ccnc(-n2sc3ccccc3c2=O)n1	inactive: -92.9%	–
